Assay results published in PubChem BioAssay AID1345082 (National Center for Advancing Translational Sciences (NCATS), 2018).
About 4,000 (4.3%) of roughly 94,000 compounds were called active. The shares of active, inactive and inconclusive entries below differ from those in the screen. The call rests on the fitted dose curve; in most records, active means well fitted inhibition curve with a large enough effect; inconclusive means small, poorly fitted or top-dose-only effect; inactive means no such curve, though single readings can be large or run the other way. Where the call is inconclusive, the potency comes from a doubtful curve fit.

assay: Cytotoxic Profiling in NIH 3T3 Cell Line of Diverse Libraries Using Quantitative High-Throughput Screening; conditions: NIH 3T3 viability, CellTiter-Glo ATP luminescence, 48-72 h; series mostly up to 96.7 µM; further: nearly all actives have a fitted effect of over 55% in size
In short: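 Luminescent ATP readout (CellTiter-Glo, 10 min RT) after 48 or 72 hr compound exposure of NIH 3T3 cells seeded at 400 cells/well in 1536-well format; quantitative HTS.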
Potency means the concentration at half of the fitted maximal effect; tags describe the fitted curve by direction and shape.

| SMILES | Potency |
| --- | --- |
| CC(=O)NC1(C)CCCN(Cc2cc(-c3ccccc3)cs2)C1 (stereo not given) | inconclusive: 79.4 µM [inhibitor, partial curve, poor fit] |
| CCN1C(=O)Cc2cc(C(=O)Nc3ccc(F)cc3)ccc21 | inconclusive: 44.7 µM [inhibitor, partial curve, poor fit] |
| CCc1cccc2c(C(CC(=O)NCc3ccco3)c3cccc([N+](=O)[O-])c3)c[nH]c12 (stereo not given) | active: 31.6 µM |
| CN(CC1(O)CCCN(Cc2ccc(F)cc2)C1=O)C1CCOCC1 (stereo not given) | inconclusive: 89.1 µM [inhibitor, single point] |
| CC(=O)N1CCN(Cc2ccc(-c3cnc4c(OCc5ccccc5)nccn34)cc2)CC1 | active: 31.6 µM |
| O=C(NCc1ccncc1)c1cc2n(n1)CC(c1ccc(Br)cc1)OC2 (stereo not given) | inactive |
| CC(C)(C)CC(=O)Nc1ccc2c(N3CCOCC3)ncnc2c1 | inactive |
| COc1ccc(N2C(=O)CSC23CCN(C(=O)Nc2ccc(C)cc2)CC3)cc1 | inconclusive: 5.62 µM [inhibitor, partial curve, poor fit] |
| O=C1NCCCCCCN(C(=O)CC2CCCCC2)[C@H]2C[C@H](c3nc(-c4cnccn4)no3)C[C@@H]12 | inactive |
| c1ccc2oc([C@H]3CCN(C4CCOCC4)C3)nc2c1 | inactive |
| c1cncc(CN2CC[C@H](c3nnc(Cc4c[nH]c5ccccc45)o3)C2)c1 | inconclusive: 44.7 µM [inhibitor, full curve] |
| Cc1ccc(C(=O)N2CCN(C(=O)c3nnn4c3COC(c3ccccc3)C4)CC2)cc1F (stereo not given) | inconclusive: 44.7 µM [inhibitor, partial curve, poor fit] |
| CCCC(O)CN1CCC(=O)N(CCOC)Cc2cc(F)ccc21 (stereo not given) | inactive |
| CCCc1noc(-c2cccn3c(CNC(=O)Cc4ccccc4Cl)nnc23)n1 | inconclusive: 50.1 µM [inhibitor, partial curve, poor fit] |
| Cn1ncc2c(C(=O)NC3CCCC3)cc(-c3ccc(C(F)(F)F)cc3)nc21 | inconclusive: 35.5 µM [inhibitor, partial curve] |
| COc1ccc(F)cc1-c1ccc(CN2CCCCC2C(=O)NCc2ccccn2)cc1 (stereo not given) | inconclusive: 28.2 µM [inhibitor, partial curve, poor fit] |
| Cc1ccc(S(=O)(=O)NC[C@H]2OC[C@@H](NC3CCNCC3)[C@@H]2O)cc1 | inactive |
| Cc1noc2c(N3CCOCC3)cc(-c3ccc(F)cc3)nc12 | inconclusive: 12.6 µM [inhibitor, full curve] |
| Cc1cccc(-n2cc(CN3CCN(c4cc(N)nc(N)n4)CC3)cn2)c1 | inconclusive: 50.1 µM [inhibitor, partial curve, poor fit] |
| CC(C)Oc1cccc(-c2ccc(C(=O)N(C)C)cc2)c1 | inconclusive: 50.1 µM [inhibitor, partial curve, poor fit] |
| CCN(CC)[C@H]1[C@@H]2OC[C@@H](O2)[C@@H](NCc2ccc(-c3ccccc3)cc2)[C@@H]1O | inconclusive: 112 µM [inhibitor, partial curve, poor fit] |
| O=C1CC2(CCN(C(=O)c3ccc(CSc4ccccc4)o3)C2)C(=O)N1 (stereo not given) | inactive |

| SMILES | Potency |
| --- | --- |
| O=C1CC(c2ccccc2)N(C(=O)CNC(=O)c2ccc3ccccc3n2)CCCCCN1 (stereo not given) | inactive |
| O=C(Nc1cnc(-c2ccccc2)nc1)c1ccccc1C(F)(F)F | inactive |
| O[C@@H]1[C@@H](Cn2cc(-c3cccnc3)nn2)C[C@@H](NCc2ccc(F)cc2)[C@@H]1O | inactive |
| O=C1CCN(C(=O)[C@@H](Cc2ccccc2)NS(=O)(=O)c2ccc3c(c2)CCC3)CCOCCN1 | inactive |
| CCCOCC(=O)N1CCc2onc(-c3ccc(C(F)(F)F)cc3)c2C1 | inconclusive: 39.8 µM [inhibitor, partial curve, poor fit] |
| CCc1ccc(C2CC(C(=O)NC(C)c3ccccc3)CN(C(=O)c3ccoc3)C2)cc1 (stereo not given) | active: 31.6 µM |
| CC(=O)NCCC1CCN(C(=O)Nc2ccc(C)cc2)CC1 | inactive |
| O=c1n(-c2ccc(C(F)(F)F)cc2)nc2n1CCN(Cc1cccnc1)C2 | inconclusive: 35.5 µM [inhibitor, partial curve] |
| COC(=O)C1=CN(CC(=O)N(C)c2ccccc2)S(=O)(=O)N=C1C | inactive |
| Cc1nn(-c2ccccc2)c2c1C(C(C)C)N(C1CN(C(=O)Nc3ccccc3)C1)C2=O (stereo not given) | inconclusive: 35.5 µM [inhibitor, partial curve, poor fit] |
| COc1cccc(CN2CCCn3nc(C)c(-c4cnccc4C)c32)c1 | inconclusive: 56.2 µM [inhibitor, partial curve, poor fit] |
| Cc1noc(-c2cn(C3CCCN(C(=O)c4ccc5c(c4)OCO5)C3)nn2)n1 (stereo not given) | inconclusive: 70.8 µM [inhibitor, single point] |
| O=S1(=O)NC2(CCCN(Cc3ccc(Cl)cc3)C2)COc2ccccc21 (stereo not given) | active: 44.7 µM |
| O=C(C1CCCC1)N1CCN(c2nccc(Nc3ccccc3Cl)n2)CC1 | active: 14.1 µM |
| O=C(NCc1ccccc1)N[C@H]1CO[C@H]2[C@@H]1OC[C@H]2OC(=O)Nc1cccc(C(F)(F)F)c1 | inconclusive: 89.1 µM [inhibitor, single point] |
| CCn1cc(-c2ccc(Cl)cc2)cc1C(=O)N1CCCN(C)CC1 | active: 17.8 µM |
| CSc1ccc(NC(=O)N2CCc3nc4cc(-c5ccccc5)[nH]n4c(=O)c3C2)cc1 | inconclusive: 44.7 µM [inhibitor, partial curve, poor fit] |
| O=C(NCc1ccccc1F)c1ccc2c(c1)CN(Cc1cncs1)CCO2 | inactive |
| CN(Cc1ccccc1)C(=O)[C@H]1C[C@@H](O)[C@H](O)[C@@H]2N=C(Nc3ccc(Cl)cc3)S[C@@H]21 | inactive |
| O=C(C[C@@H]1CCNC[C@@H]1Cc1cc(-c2ccccc2)on1)NCc1cccnc1 | inactive |
| Cn1cc(Cl)c(C(=O)N2CCOC(c3ccc(Cl)c(Cl)c3)C2)n1 (stereo not given) | inconclusive: 79.4 µM [inhibitor, partial curve] |
| COCCn1cnc2ccc(N3CCCC3)nc2c1=O | inconclusive: 126 µM [inhibitor, single point] |

| SMILES | Potency |
| --- | --- |
| O=C(c1ccc(C(F)(F)F)cc1)N1CCC2(C1)C(=NC1CCCCC1)NC(=O)N2c1cc(F)cc(F)c1 (stereo not given) | active: 25.1 µM |
| Cc1cccc(-c2nc3cc(C(=O)NCC(C)C)ccc3o2)n1 | inconclusive: 44.7 µM [inhibitor, partial curve, poor fit] |
| COCCOC1CCN(S(=O)(=O)c2ccc(F)cc2)CC1 | inactive |
| COc1ccc(F)c(CN2CCCC(O)(CN3CCC(CCO)CC3)C2=O)c1 (stereo not given) | inactive |
| CN1C(=O)C2(CCCN(C(=O)c3ccc(Cl)cc3)C2)Cc2ccccc21 (stereo not given) | inconclusive: 44.7 µM [inhibitor, partial curve, poor fit] |
| Cc1ncoc1C(=O)N1CCC(c2noc(-c3ccccc3)n2)C1 (stereo not given) | inactive |
| NCCC1CN(Cc2cc3ccccc3s2)CCO1 (stereo not given) | inconclusive: 50.1 µM [inhibitor, partial curve, poor fit] |
| O=C(c1cc(-c2ccccc2F)cc2c1OCCN2Cc1cccnc1)N1CC(O)C1 | inconclusive: 112 µM [inhibitor, single point] |
| COc1ccc(C(=O)N2CCN(C(=O)c3nnn4c3COC(c3ccc(F)cc3)C4)CC2)cc1F (stereo not given) | inconclusive: 14.1 µM [inhibitor, full curve, poor fit] |
| Cc1onc(C(=O)NCc2ccc3[nH]c(-c4ccc(F)cc4)c(C)c3c2)c1CO | inconclusive: 8.91 µM [inhibitor, full curve, poor fit] |
| COc1ccc(C(=O)NC2CCN(c3cc(-c4ccc(Cl)cc4)[nH]n3)C2)cc1F (stereo not given) | inconclusive: 44.7 µM [inhibitor, partial curve, poor fit] |
| COc1ccc2[nH]c3c(c2c1)CCNC31CCN(C(C)C)CC1 | inconclusive: 44.7 µM [inhibitor, partial curve, poor fit] |
| O=C(O)c1ccc(-c2ncc3cnc(-c4cccc(F)c4)cn23)cc1 | inconclusive: 56.2 µM [inhibitor, partial curve, poor fit] |
| Cc1ccc(-c2ccccc2CN2CCN(C(=O)c3ccccc3)CC2)cc1Cl | inconclusive: 44.7 µM [inhibitor, partial curve, poor fit] |
| C[S+](=O)([O-])N1CCCC2(C1)C(=NC1CCCCC1)NC(=O)N2c1cccnc1 (stereo not given) | inactive |
| Cn1cc(CN2CCCC(COc3ccccc3C(=O)N3CCCCC3)C2)c2ccccc21 (stereo not given) | inconclusive: 44.7 µM [inhibitor, partial curve, poor fit] |
| Cc1ccc(CN2Cc3[nH]cnc3C[C@H]2c2nc(C(C)C)no2)cc1 | inconclusive: 63.1 µM [inhibitor, full curve, poor fit] |
| CN(CC1CC1)C(=O)c1coc(CN2CCN(c3ccccc3F)CC2)n1 | inconclusive: 39.8 µM [inhibitor, partial curve] |
| COc1ccc2nc3n(c2c1)[C@@H](CNS(=O)(=O)c1ccc(F)cc1)COC3 | inconclusive: 35.5 µM [inhibitor, partial curve, poor fit] |
| O=C(NCc1ccc(F)c(F)c1)c1nc2sccn2c1-c1ccc(F)cc1 | inconclusive: 39.8 µM [inhibitor, partial curve, poor fit] |
| Cc1ccc(S(=O)(=O)N2CCC(n3cnnc3-c3ccccc3)CC2)cc1C | inconclusive: 50.1 µM [inhibitor, partial curve, poor fit] |
